In the antibiotic and cytotoxicity screens of Wong et al. (2023):
This is one part of the list.

Experiments:
[1] = tested on: HSkMC (human skeletal muscle cells); experiment: cytotoxicity call (relative viability < 0.9); settings: 10 µM
[2] = tested on: HepG2; experiment: cytotoxicity call (relative viability < 0.9); settings: 10 µM
[3] = tested on: S. aureus RN4220; experiment: growth inhibition call (relative growth <= 0.2); settings: 50 µM

SMILES	cytotoxicity call [1]	cytotoxicity call [2]	growth inhibition call [3]
O=C(C[C@@H]1C[C@@H]2c3cc(NC(=O)Nc4ccccc4F)ccc3O[C@@H]2[C@H](CO)O1)NCc1ccc(Oc2ccccc2)cc1	inactive	inactive	inactive
Nc1c(O)cccc1C(=O)C[C@H](N)C(=O)O	inactive	inactive	inactive
Cc1noc(C)c1S(=O)(=O)Nc1ccc2c(c1)CC(=O)N([C@@H](C)CO)C[C@@H](C)[C@@H](CN(C)S(=O)(=O)c1cccs1)O2	inactive	inactive	inactive
C[C@@H]1CCCCO[C@@H](CN(C)Cc2ccc(Cl)c(Cl)c2)[C@H](C)CN([C@@H](C)CO)C(=O)c2cc(NS(=O)(=O)c3ccc(F)cc3)ccc2O1	active	active	inactive
C[C@@H]1CN([C@H](C)CO)C(=O)CCCn2cc(nn2)CO[C@H]1CN(C)C(=O)Nc1ccccc1C(F)(F)F	inactive	inactive	inactive
CCNC(=O)[C@@H]1[C@@H](CO)[C@@H]2Cn3c(ccc(-c4ccc(OC)cc4)c3=O)[C@H]1N2S(C)(=O)=O	inactive	inactive	inactive
Nc1cc(N2CCCCC2)nc(N)[n+]1[O-]	inactive	inactive	inactive
COc1ccc2c3c([nH]c2c1)[C@H](CO)N(C[C@]13CCN(CC1)C(=O)CN(C)C)S(=O)(=O)C	inactive	inactive	inactive
C[C@H]1CCCCO[C@@H](CN(C)Cc2ccc3c(c2)OCO3)[C@@H](C)CN([C@@H](C)CO)C(=O)c2cc(NC(=O)CCC(F)(F)F)ccc2O1	inactive	inactive	inactive
C[C@@H]1CN([C@H](C)CO)C(=O)c2cccc(NC(=O)Nc3cccc4ccccc34)c2O[C@@H]1CN(C)S(=O)(=O)c1ccccc1	inactive	inactive	inactive
N=C(N)N1CCc2ccccc2C1.O=S(=O)(O)O	inactive	inactive	inactive
O=C(O)CCCN1C(=O)c2cccc3cccc(c23)C1=O	inactive	inactive	inactive
COc1ccc(S(=O)(=O)Nc2cccc3c2O[C@H](CN(C)CC2CC2)[C@@H](C)CN([C@@H](C)CO)C3=O)cc1	inactive	inactive	inactive
C[C@H](CO)N1C[C@H](C)[C@H](CN(C)Cc2ccc(C(F)(F)F)cc2)Oc2c(NS(=O)(=O)c3ccc(Cl)cc3)cccc2C1=O	active	inactive	inactive
Cc1ccc(S(=O)(=O)N(C)C[C@H]2OCCCC[C@H](C)Oc3ccc(NS(=O)(=O)c4ccc(Cl)cc4)cc3C(=O)N([C@@H](C)CO)C[C@H]2C)cc1	inactive	inactive	inactive
C[C@@H]1CN([C@H](C)CO)C(=O)c2cc(NC(=O)Nc3cccc4ccccc34)ccc2O[C@@H](C)CCCCO[C@@H]1CN(C)Cc1ccc(C(F)(F)F)cc1	inactive	inactive	inactive
COc1cc(-c2cc(=O)c3c(s2)N(Cc2ccco2)[C@@H](c2ccc(O)c(OC)c2)CC3=O)ccc1O	inactive	inactive	inactive
Cc1[nH]c(=O)[nH]c(=O)c1CCC(=O)O	inactive	inactive	inactive
C1CCN2CC3CC(CN4CCCCC34)C2C1.O=S(=O)(O)O (configuration not stated)	inactive	inactive	inactive
C[C@@H]1CCCCO[C@@H](CN(C)S(C)(=O)=O)[C@H](C)CN([C@@H](C)CO)C(=O)c2cc(NC(=O)Nc3cccc4ccccc34)ccc2O1	inactive	inactive	inactive
Cc1noc(C)c1NC(=O)Nc1ccc2c(c1)C(=O)N([C@H](C)CO)C[C@@H](C)[C@H](CN(C)C(=O)Nc1ccc(F)cc1)OCCCC[C@@H](C)O2	inactive	inactive	inactive
CN[C@H]1[C@@H](O[C@H]2[C@@H](O[C@H]3[C@@H](O)[C@@H](O)[C@@H](NC(=N)N)[C@@H](O)[C@@H]3NC(=N)N)O[C@@H](C)[C@@]2(O)C=O)O[C@@H](CO)[C@@H](O)[C@@H]1O.CN[C@H]1[C@@H](O[C@H]2[C@@H](O[C@H]3[C@@H](O)[C@@H](O)[C@@H](NC(=N)N)[C@@H](O)[C@@H]3NC(=N)N)O[C@@H](C)[C@@]2(O)C=O)O[C@@H](CO)[C@@H](O)[C@@H]1O.O=S(=O)(O)O.O=S(=O)(O)O.O=S(=O)(O)O	inactive	inactive	inactive
Cc1cc(C(=O)Nc2cccc3c2O[C@@H](CN(C)S(=O)(=O)c2ccc(F)cc2)[C@H](C)CN([C@@H](C)CO)C3=O)n(C)n1	inactive	inactive	inactive
COc1ccccc1S(=O)(=O)N(C)C[C@@H]1Oc2cc(C#CCC(C)C)ccc2S(=O)(=O)N([C@@H](C)CO)C[C@@H]1C	inactive	inactive	inactive
